In assay [1] the target is T1, IBTK, ectopically expressed in 293T cells (UniProt Q9P2D0).
T1 sequence: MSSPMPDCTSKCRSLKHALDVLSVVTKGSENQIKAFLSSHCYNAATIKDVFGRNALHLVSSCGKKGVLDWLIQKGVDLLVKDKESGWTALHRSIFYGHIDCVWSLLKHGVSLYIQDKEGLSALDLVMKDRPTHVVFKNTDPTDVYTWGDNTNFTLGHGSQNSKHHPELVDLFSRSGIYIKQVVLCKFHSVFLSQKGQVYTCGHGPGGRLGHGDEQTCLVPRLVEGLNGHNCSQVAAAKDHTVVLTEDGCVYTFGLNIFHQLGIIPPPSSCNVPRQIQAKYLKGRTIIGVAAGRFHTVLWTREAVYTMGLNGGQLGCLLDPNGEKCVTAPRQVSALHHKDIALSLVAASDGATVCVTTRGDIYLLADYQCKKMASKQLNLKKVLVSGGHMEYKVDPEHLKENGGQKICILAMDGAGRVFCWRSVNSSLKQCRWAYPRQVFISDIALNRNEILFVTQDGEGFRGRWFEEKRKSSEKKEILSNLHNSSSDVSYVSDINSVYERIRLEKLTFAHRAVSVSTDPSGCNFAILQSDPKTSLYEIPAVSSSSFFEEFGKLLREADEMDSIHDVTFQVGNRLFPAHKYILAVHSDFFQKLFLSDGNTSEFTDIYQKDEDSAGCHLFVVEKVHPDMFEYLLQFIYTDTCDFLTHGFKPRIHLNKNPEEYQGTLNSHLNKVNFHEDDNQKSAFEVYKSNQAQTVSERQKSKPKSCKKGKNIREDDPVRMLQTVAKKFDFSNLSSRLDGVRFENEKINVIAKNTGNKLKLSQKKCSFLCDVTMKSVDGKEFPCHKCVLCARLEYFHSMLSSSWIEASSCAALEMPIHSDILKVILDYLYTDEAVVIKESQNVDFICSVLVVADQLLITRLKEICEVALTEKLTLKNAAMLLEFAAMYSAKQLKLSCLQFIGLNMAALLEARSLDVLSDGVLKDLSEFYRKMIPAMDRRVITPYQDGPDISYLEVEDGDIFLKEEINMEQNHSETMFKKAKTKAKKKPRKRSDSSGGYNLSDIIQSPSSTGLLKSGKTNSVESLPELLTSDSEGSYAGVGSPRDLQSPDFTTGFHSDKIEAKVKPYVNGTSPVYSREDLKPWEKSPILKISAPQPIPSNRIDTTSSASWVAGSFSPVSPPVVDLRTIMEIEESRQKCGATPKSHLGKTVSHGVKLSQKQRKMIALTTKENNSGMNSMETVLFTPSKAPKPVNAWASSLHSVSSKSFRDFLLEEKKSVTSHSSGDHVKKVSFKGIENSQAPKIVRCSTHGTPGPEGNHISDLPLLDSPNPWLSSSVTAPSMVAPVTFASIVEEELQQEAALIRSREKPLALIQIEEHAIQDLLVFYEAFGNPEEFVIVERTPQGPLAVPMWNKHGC
The experiment in a line: co-IP; anti-FLAG co-IP from whole cell lysates of 293T cells transfected with the indicated plasmids, Western blot (Figures 1D-F, 5B-D). For orientation: In western blotting, separated proteins are transferred to a membrane and probed.

Sequences of proteins named here, by UniProt entry; tags and fusion partners are left off.
UniProt P23443: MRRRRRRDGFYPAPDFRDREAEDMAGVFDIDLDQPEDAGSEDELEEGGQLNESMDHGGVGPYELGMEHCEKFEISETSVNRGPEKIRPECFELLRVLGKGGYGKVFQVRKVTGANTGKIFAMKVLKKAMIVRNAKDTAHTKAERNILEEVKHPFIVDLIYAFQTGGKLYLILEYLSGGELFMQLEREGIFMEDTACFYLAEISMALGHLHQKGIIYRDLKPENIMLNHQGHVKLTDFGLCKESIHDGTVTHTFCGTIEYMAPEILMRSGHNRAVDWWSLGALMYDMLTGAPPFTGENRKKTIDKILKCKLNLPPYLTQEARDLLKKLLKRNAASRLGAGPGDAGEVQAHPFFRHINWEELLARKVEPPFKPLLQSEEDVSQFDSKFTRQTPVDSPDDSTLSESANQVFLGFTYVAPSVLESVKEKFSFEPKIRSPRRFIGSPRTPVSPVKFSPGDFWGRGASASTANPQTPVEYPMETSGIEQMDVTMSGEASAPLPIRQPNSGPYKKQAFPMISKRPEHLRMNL
UniProt P05198: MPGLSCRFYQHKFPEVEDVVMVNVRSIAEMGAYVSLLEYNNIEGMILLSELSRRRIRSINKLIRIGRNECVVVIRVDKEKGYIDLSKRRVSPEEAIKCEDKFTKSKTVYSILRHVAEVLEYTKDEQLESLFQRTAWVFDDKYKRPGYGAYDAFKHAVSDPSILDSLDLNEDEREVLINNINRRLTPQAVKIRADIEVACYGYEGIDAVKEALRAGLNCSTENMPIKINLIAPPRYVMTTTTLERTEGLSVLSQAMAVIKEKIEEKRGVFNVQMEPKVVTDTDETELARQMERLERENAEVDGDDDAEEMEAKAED
UniProt P60842: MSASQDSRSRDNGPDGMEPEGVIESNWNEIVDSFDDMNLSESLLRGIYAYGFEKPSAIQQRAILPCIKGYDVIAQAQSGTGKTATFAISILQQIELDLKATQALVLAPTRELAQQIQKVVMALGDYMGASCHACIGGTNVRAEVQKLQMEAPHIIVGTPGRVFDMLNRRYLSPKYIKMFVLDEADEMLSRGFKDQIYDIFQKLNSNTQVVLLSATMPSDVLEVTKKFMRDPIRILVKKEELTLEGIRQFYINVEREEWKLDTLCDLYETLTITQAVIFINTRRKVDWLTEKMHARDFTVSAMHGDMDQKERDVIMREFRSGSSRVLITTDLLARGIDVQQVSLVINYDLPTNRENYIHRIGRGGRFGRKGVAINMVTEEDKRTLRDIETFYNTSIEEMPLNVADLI
UniProt Q14240: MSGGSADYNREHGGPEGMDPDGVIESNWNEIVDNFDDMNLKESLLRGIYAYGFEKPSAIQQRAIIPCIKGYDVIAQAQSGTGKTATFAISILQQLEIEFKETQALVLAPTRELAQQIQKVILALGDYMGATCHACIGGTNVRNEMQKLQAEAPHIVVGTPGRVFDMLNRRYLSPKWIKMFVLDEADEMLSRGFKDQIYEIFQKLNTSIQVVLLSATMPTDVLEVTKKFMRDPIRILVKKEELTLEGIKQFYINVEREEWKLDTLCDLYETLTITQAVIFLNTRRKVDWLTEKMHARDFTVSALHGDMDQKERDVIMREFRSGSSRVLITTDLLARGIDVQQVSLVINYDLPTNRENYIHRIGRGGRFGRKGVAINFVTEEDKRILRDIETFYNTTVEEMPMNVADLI
UniProt P38919: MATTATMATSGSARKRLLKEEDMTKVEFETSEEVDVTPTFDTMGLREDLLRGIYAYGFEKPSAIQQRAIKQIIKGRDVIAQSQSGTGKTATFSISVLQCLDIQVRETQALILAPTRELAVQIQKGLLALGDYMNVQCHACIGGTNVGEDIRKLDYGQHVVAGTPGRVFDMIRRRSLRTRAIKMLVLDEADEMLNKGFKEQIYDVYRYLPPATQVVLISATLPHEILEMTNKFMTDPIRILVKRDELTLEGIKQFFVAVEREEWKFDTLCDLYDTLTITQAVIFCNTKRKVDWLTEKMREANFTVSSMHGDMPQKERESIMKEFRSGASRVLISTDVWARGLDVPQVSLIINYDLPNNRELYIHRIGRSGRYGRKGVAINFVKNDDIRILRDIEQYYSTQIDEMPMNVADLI
UniProt P06730: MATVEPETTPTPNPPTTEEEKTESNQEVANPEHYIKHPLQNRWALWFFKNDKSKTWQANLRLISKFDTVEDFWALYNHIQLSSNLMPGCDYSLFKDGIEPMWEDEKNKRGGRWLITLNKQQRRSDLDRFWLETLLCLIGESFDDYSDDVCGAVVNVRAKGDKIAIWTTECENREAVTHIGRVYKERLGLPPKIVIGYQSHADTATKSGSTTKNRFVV

Assay [2] concerns the target T2, IBTK, endogenous (human (endogenous in 293T)) (UniProt Q9P2D0).
T2 sequence: T1 sequence
In words: co-IP; endogenous co-IP with anti-eIF4A1, eIF4A2, eIF4A3 or IBTK antibody from whole cell lysates of 293T cells, Western blot (Figures 1H-K, 5E).

Assay [3] concerns the target T3, FLAG-BirA*-IBTK (inhibitor of Bruton's tyrosine kinase) (UniProt Q9P2D0).
T3 sequence: T1 sequence
In words: co-IP; FLAG-BirA*-IBTK Tet-on Flp-In T-REx 293 cells with/without DOX (10 ng/ml, 12 hr); anti-FLAG co-IP, Western blot of endogenous proteins (Figure 1G).

The values that follow come from publication PMC11090508.

Results are given in words; binding and its absence hold for the method and conditions named. In cells and extracts the contact can be indirect. Some results given as binding are weak or reduced against the parent protein; the word gives no strength. For some of these results: Sequences can lack the tags named with a protein.

On to “S6K1, ectopically expressed in 293T cells (from UniProt P23443 1-525) (enzyme)”, for which the binding result in assay [1] was “binds”.

For “S6K1, endogenous (from UniProt P23443 1-525) (enzyme)”, in assay [2], the binding result was “binds”.

For the substance “eIF2α, endogenous (from UniProt P05198 1-315)”, the binding entry in assay [3] was “binds”.

Consider “eIF4A1, ectopically expressed in 293T cells (from UniProt P60842 1-406)”, for which the binding result in assay [1] is “binds”.

For “eIF4A1, endogenous (from UniProt P60842 1-406)”, the binding result in assay [2] and in assay [3] was “binds” each time.

For “eIF4A2, ectopically expressed in 293T cells (from UniProt Q14240 1-407)”, the binding entry in assay [1] is “binds”.

On to “eIF4A2, endogenous (from UniProt Q14240 1-407)”, for which the binding result in assay [2] and in assay [3] was “binds” in each case.

For the substance “eIF4A3, ectopically expressed in 293T cells (from UniProt P38919 1-411)”, the binding result in assay [1] is given as “binds”.

With “eIF4A3, endogenous (from UniProt P38919 1-411)”, the binding entry in assay [2] and in assay [3] was “binds” in each case.

On to “eIF4E, endogenous (from UniProt P06730 1-217)”, for which, in assay [3], the binding result is reported as “no binding”.
